Test results taken from PubChem BioAssay AID624171 (National Center for Advancing Translational Sciences (NCATS), 2012).
Among all 410,000 compounds or so, about 1,200 (0.29%) were called active. Inconclusive results, whose numbers are uncertain, are shown with a selection of clear calls. Calls follow the shape of the dose curve; as a rule, active = well fitted activation curve with a large enough effect; inconclusive = small, poorly fitted or top-dose-only effect; inactive = flat fitted curve, though single readings scatter. A potency beside an inconclusive call is a rough fit, not a confirmed value.

Assay: qHTS of Nrf2 Activators; also: nearly all actives have a fitted effect of over 65% in size; as to activation: % of control where 0% means no effect
Conditions: AREc32 ARE-luciferase reporter (MCF7-derived line), luminescence, 24 h; activation: at 46.1 µM (top of the series)
Method in brief: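 Each well held 1000 AREc32 cells, which were incubated with compound for 24 hr at 37 deg C after overnight attachment, and ARE reporter activity was quantified by firefly luciferase luminescence.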
Potency is read from the fitted curve at half-maximal effect; tags tell the direction and shape of the fitted curve.

Row | SMILES | activation | Potency
1 | COCCNC(=O)C1CCCN(C(=O)COc2ccc(Cl)cc2Cl)CC1 (stereo not drawn) | inactive: -1.47% | 
2 | Cc1[nH]c2ccccc2c1C1=CC(=O)C=CC1=O |  | inconclusive: 17.8 µM [activator, partial curve, poor fit]
3 | O=C1Nc2ccc(Cl)cc2/C1=C/C1CC=CCC1 (stereo not drawn) |  | inconclusive: 11.2 µM [activator, partial curve]
4 | CC(=O)Oc1cccc(N2C(=O)c3cccc4c([N+](=O)[O-])ccc(c34)C2=O)c1 | inactive: 13.8% | 
5 | CCN(C(=O)COc1ccc(C)nc1[N+](=O)[O-])C1CCS(=O)(=O)C1 (stereo not drawn) | inactive: -0.303% | 
6 | CCOC(=O)/C=C/C(=O)OCC(=O)N1CCN(C(=O)c2ccco2)CC1 |  | inconclusive: 14.1 µM [activator, single point]
7 | CCN(C(=O)COC(=O)/C=C/c1ccccc1Cl)c1c(N)n(Cc2ccccc2)c(=O)[nH]c1=O |  | inconclusive: 3.55 µM [activator, single point]
8 | COc1ccc(NC(=O)CSc2nnc(NC(=O)NC3CCCCC3)s2)cc1OC | inactive: 3.93% | 
9 | Cc1cc(S(=O)(=O)NCC(c2ccco2)S(=O)(=O)c2cccs2)ccc1F (stereo not drawn) |  | inconclusive: 11.2 µM [activator, partial curve]
10 | C(=NN1CCCCCC1)c1ccc2ccccc2n1 | inactive: -1.93% | 
11 | O=C(/C=C/c1cc(Br)ccc1F)OCC(=O)N1CCOCC1 |  | active: 11.2 µM
12 | COn1c(-c2ccccc2)nc2c1CCc1c-2no[n+]1[O-] |  | inconclusive: 5.01 µM [activator, full curve]
13 | Cc1cccc(NC(=O)COc2ccc(-c3nn(C)c(=O)c4ccccc34)cc2)c1 |  | inactive
14 | CC1(C)CC(/C=C/c2ccccc2)=Nc2ccccc2N1 |  | inconclusive: 15.8 µM [activator, single point]
15 | Cc1ccsc1/C=C1\CCc2ccccc2C1=O |  | inconclusive: 11.2 µM [activator, partial curve, poor fit]
16 | C(=C\c1nc(-c2ccccc2)no1)/c1ccccc1 |  | active: 14.1 µM
17 | O=C(CSc1nc2ccccc2o1)NCc1n[nH]c(=O)c2ccccc12 |  | inconclusive: 12.6 µM [activator, single point]
18 | COc1ccc(C2=C(N3CCN(c4cccc(C)c4)C(C)C3)c3ccccc3C2=O)cc1 (stereo not drawn) | inactive: 5.21% | 
19 | CCOc1ccccc1NC(=O)/C=C/C(N)=O |  | inconclusive: 35.5 µM [activator, single point]
20 | O=C(c1ccc(Br)cc1)C(CN1CCOCC1)c1ccccc1 (stereo not drawn) |  | inconclusive: 3.98 µM [activator, single point]
21 | O=C(NNC(=O)c1cc([N+](=O)[O-])ccc1Cl)c1cccs1 |  | inconclusive: 11.2 µM [activator, partial curve]
22 | Nc1ccc(-c2nc3ccc(N)cc3[nH]2)cc1 |  | inconclusive: 11.2 µM [activator, partial curve]
23 | Cc1ccc(OCCOCCNC(C)C)c(Br)c1 | inactive: 0.245% | 
24 | N=C1/C(=C\c2coc3ccccc3c2=O)C(=O)N=C2SC=CN12 |  | active: 17.8 µM
25 | N#CC1=C(N)C2=CCCC[C@H]2[C@H](c2ccc(Br)cc2)C1(C#N)C#N |  | inconclusive: 25.1 µM [activator, single point]

Row | SMILES | activation | Potency
26 | Cc1nn(Cc2ccccc2)c2c1C(c1ccc(Cl)cc1)C(C#N)=C(N)O2 (stereo not drawn) |  | inconclusive: 35.5 µM [activator, partial curve, poor fit]
27 | O=C(Nc1ccccn1)c1cc2ccccc2cc1O |  | inconclusive: 3.16 µM [activator, full curve]
28 | Fc1cccc(-c2nnn3c2nc(Cl)c2ccccc23)c1 |  | inconclusive: 14.1 µM [activator, partial curve, poor fit]
29 | O=C1CN(C(=O)COC(=O)c2cccc(Br)c2)c2ccccc2N1 |  | inconclusive: 1.78 µM [activator, partial curve, poor fit]
30 | O=C(Nc1ccc2oc(-c3ccncc3)nc2c1)c1ccccc1Cl | inactive: 6.72% | 
31 | CCCCN(CC)C(=O)CSc1c2c(nc3ccc(Cl)cc13)CCCC2 |  | inconclusive: 25.1 µM [activator, single point]
32 | N#C/C(=C/c1ccco1)c1nc2ccccc2s1 |  | inconclusive: 2.82 µM [activator, full curve, poor fit]
33 | CCC(CC)c1nnc(NC(=O)C2=COCCO2)s1 | inactive: 2.51% | 
34 | C=CCNc1sc(C(=O)c2ccccc2)c(N)c1-c1nc2ccccc2s1 |  | inconclusive: 12.6 µM [activator, partial curve, poor fit]
35 | CC(C)CNC(=O)COC(=O)/C=C/c1ccco1 |  | inconclusive: 25.1 µM [activator, single point]
36 | Nc1nc(-c2cccnc2)nn1S(=O)(=O)c1ccccc1 | inactive: -0.138% | 
37 | O=C1C(=Cc2cccc(Cl)c2)Cc2ccccc21 |  | active: 10 µM
38 | CC(=O)c1cccc(NC(=O)c2cc(-c3cccs3)on2)c1 |  | inconclusive: 12.6 µM [activator, partial curve, poor fit]
39 | CCOC(=O)c1cnc2c(cnn2C)c1Cl |  | inconclusive: 22.4 µM [activator, single point]
40 | COC(=O)c1ccc2nc(-c3ccc(F)cc3)c(CC3CCCCC3)n2c1 |  | inconclusive: 3.55 µM [activator, full curve, poor fit]
41 | CCC(=O)N1CCN(c2ccc(NC(=O)c3ccc([N+](=O)[O-])o3)cc2)CC1 |  | inconclusive: 3.55 µM [activator, single point]
42 | O=[N+]([O-])c1ccc(N/N=C/C=C/c2ccco2)cc1 |  | inconclusive: 1.41 µM [activator, partial curve, poor fit]
43 | O=C(N/N=C/c1ccc([N+](=O)[O-])o1)c1cc2ccccc2o1 |  | inconclusive: 3.98 µM [activator, single point]
44 | COc1cc(OC)c(NC(=O)c2csc(C)c2)cc1Cl |  | active: 12.6 µM
45 | O=C(C#Cc1ccccc1)Nc1ccccc1F |  | inconclusive: 14.1 µM [activator, single point]
46 | COC(=O)c1sccc1NC(=O)c1c(C)noc1C |  | inconclusive: 3.55 µM [activator, full curve, poor fit]
47 | COC/C=C/C1=CC2=CC(=O)C(C)(OC(=O)c3cnc4ccccc4n3)C(=O)C2=CN1C1CC1 (stereo not drawn) |  | inconclusive: 35.5 µM [activator, single point]
48 | O=C(Nc1noc2ccccc12)c1cccc(Cl)c1Cl |  | inconclusive: 2.51 µM [activator, full curve, poor fit]
49 | COCCN(C(=O)c1csnn1)C(C(=O)NC1CCCCC1)c1ccccc1F (stereo not drawn) | inactive: -0.632% | 
50 | CCN(C(=O)COC(=O)c1cc(NS(=O)(=O)c2ccc(Cl)c([N+](=O)[O-])c2)ccc1O)C1CCCCC1 |  | inconclusive: 35.5 µM [activator, single point]

Row | SMILES | activation | Potency
51 | COc1ccccc1/C=C/c1onc(C)c1S(=O)(=O)N1CCC(C(=O)N2CCC(C)CC2)CC1 | inactive: 3.23% | 
52 | CNC(=O)CC1C(=O)N(c2ccc(Cl)cc2)C(=S)N1CCc1ccc(OC)c(OC)c1 (stereo not drawn) |  | inconclusive: 25.1 µM [activator, single point]
53 | CCOC(=O)N1CCN(CCC(=O)c2ccc(Cl)cc2)CC1 |  | inconclusive: 28.2 µM [activator, single point]
54 | Cc1cc(OC(C)C(=O)NNC(=O)Nc2ccc(F)cc2F)cc(C)c1Cl (stereo not drawn) | inactive: 2.78% | 
55 | Cc1[nH]c2ccc(C(=O)NCCN3CCOCC3)cc2c1C | inactive: 0.118% | 
56 | Nc1nc(N2CCN(C(c3ccccc3)c3ccccc3)CC2)n[nH]1 | inactive: 11.4% | 
57 | CC(=O)c1cccc(N(C(=O)c2ccco2)C(C(=O)NC2CCCCC2)c2ccc(C)o2)c1 (stereo not drawn) | inactive: -0.616% | 
58 | O=C1CN(C(=O)COC(=O)c2ccc([N+](=O)[O-])o2)c2ccccc2N1 |  | inconclusive: 17.8 µM [activator, single point]
59 | Cc1cccc(C=CC(=O)c2ccccc2)c1 |  | inconclusive: 22.4 µM [activator, single point]
60 | O=C(Nc1ccc2nc3n(c(=O)c2c1)CCCC3)c1cccc(F)c1 | inactive: 0.574% | 
61 | N#C/C(=C\c1cccs1)Sc1nc2ccccc2s1 |  | inconclusive: 2.82 µM [activator, full curve, poor fit]
62 | CCCOc1ccc(C(=O)Nc2ccccc2[N+](=O)[O-])cc1 | inactive: 10.6% | 
63 | Oc1ccc(Nc2nc(-c3cccnc3)cs2)cc1 |  | inconclusive: 12.6 µM [activator, partial curve, poor fit]
64 | O=S(=O)(c1cnc(Cl)c(Br)c1)N1CCc2ccccc21 |  | inconclusive: 28.2 µM [activator, single point]
65 | CCOC(=O)C1(C(=O)OCC)COC(=O)C1CN1Cc2cc3ccccc3nc2C1 (stereo not drawn) |  | inconclusive: 22.4 µM [activator, single point]
66 | COc1ccc(NC(=O)Nc2cccc3ccccc23)c(OC)c1 | inactive: -1.59% | 
67 | c1cnc2c(c1)ccc1cccnc12 |  | inactive
68 | COc1cc(OC)c(N(C)C(=O)CSc2c3c(nc4ccc(Cl)cc24)CCCC3)cc1Cl |  | inconclusive: 25.1 µM [activator, single point]
69 | Oc1c(/C=N/Nc2cccc3cccnc23)ccc2ccccc12 |  | inconclusive: 12.6 µM [activator, single point]
70 | Cc1nn2c(-c3ccco3)ccnc2c1-c1ccc(Cl)cc1 |  | inconclusive: 12.6 µM [activator, partial curve, poor fit]
71 | Clc1cccc(-n2ncc3c(Nc4ccc5c(c4)OCCO5)ncnc32)c1 | inactive: -0.483% | 
72 | O=C(Nc1nc2c(Cl)cccc2s1)c1ccc(Br)o1 |  | inconclusive: 11.2 µM [activator, single point]
73 | CC(=O)Nc1ccc2nc(NC(=O)c3ccc([N+](=O)[O-])o3)sc2c1 |  | inconclusive: 2.24 µM [activator, partial curve, poor fit]
